Data as given in the supplement of paper PMC4166925.
± gives the standard deviation of the averaged measurements. In all, about 33,000 sequences were measured (“E-score (dimensionless, -0.5 to 0.5)”: median about -0.046, highest 2% from about 0.36 on). Some of the results follow.

Test system: T1, SpTbr T-box DNA-binding domain (GST fusion)
T1 sequence: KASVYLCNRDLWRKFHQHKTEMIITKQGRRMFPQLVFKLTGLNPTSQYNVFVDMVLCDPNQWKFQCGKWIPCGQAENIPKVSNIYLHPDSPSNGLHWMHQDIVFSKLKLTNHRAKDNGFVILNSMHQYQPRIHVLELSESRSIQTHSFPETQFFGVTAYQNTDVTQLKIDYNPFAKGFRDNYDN
Test: PBM E-score of 8-mer (E-score (dimensionless, -0.5 to 0.5)); Tbr is Tbrain of the sea star Patiria miniata (Pm) or the sea urchin Strongylocentrotus purpuratus (Sp); higher = stronger binding preference; most listed sequences are background and not binding sites
Conditions: the construct has about 5 more residues each side
Outline: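 Primer extension turned Universal Agilent oligonucleotide arrays double-stranded. They were incubated with 200 nM protein in PBS (pH 7.5); the protein was a GST-fused Tbr T-box DNA-binding domain expressed in BL21 E. coli at 20 °C and purified on glutathione. Every ungapped 8-mer was scored from the scanned, quantified probe intensities, and the Universal PBM Analysis Suite gave each an enrichment E-score averaged over duplicate arrays.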

| Sequence | PBM E-score of 8-mer |
| --- | --- |
| CATGCGGC | -0.0561 ± 0.031 |
| ATAGCAAA | -0.0414 ± 0.0043 |
| GTATGAGA | -0.128 ± 0.015 |
| GCAAGCCC | -0.159 ± 0.038 |
| AAGCGCGG | 0.136 ± 0.063 |
| ATGAGGAA | -0.255 ± 0.039 |
| CCAAGCGA | -0.092 ± 0.038 |
| CCTTAATA | -0.144 ± 0.013 |
| GATGCATA | -0.126 ± 0.046 |
| ACTGGTGA | -0.0975 ± 0.042 |
| CCCCCCCA | -0.246 ± 0.0029 |
| CACTCTCC | 0.0753 ± 0.021 |
| CAAGATAG | -0.156 ± 0.0096 |
| GGTACAGA | -0.122 ± 0.029 |
| CATCCTGC | -0.379 ± 0.033 |
| GCGATTAC | 0.0367 ± 0.017 |
| GACCGCGA | 0.232 ± 0.035 |
| CCACTCAC | 0.256 ± 0.023 |
| GCGTGAGA | 0.361 ± 0.03 |
| ATTTTTGC | 0.0641 ± 0.1 |
| AACCTTTC | -0.0391 ± 0.099 |
| ATTGTCGG | 0.0284 ± 0.068 |
| CGGAAAAG | -0.0916 ± 0.01 |
| AACCAGCA | -0.199 ± 0.019 |
| CTAGAGCC | -0.0664 ± 0.059 |

| Sequence | PBM E-score of 8-mer |
| --- | --- |
| CCACAACC | 0.113 ± 0.015 |
| AAGAGAGT | -0.132 ± 0.011 |
| CAATATTC | -0.0313 ± 0.033 |
| CCAGGAAC | -0.00602 ± 0.037 |
| ATGCGGGG | -0.179 ± 0.033 |
| CTCATTTA | -0.14 ± 0.042 |
| AGGTCCAA | -0.0715 ± 0.012 |
| CAGGATAA | 0.00792 ± 0.035 |
| AACGGATT | -0.136 ± 0.035 |
| TCAAGGCA | -0.138 ± 0.0075 |
| GCAATGGC | 0.0976 ± 0.015 |
| CCTCGGAG | -0.165 ± 0.018 |
| AGCCAGAA | -0.268 ± 0.024 |
| AGACAGTC | -0.158 ± 0.045 |
| AACTGAAG | -0.0561 ± 0.068 |
| CTCGGGAC | -0.118 ± 0.062 |
| ACTGGGCG | -0.0637 ± 0.022 |
| ACGGTGCA | 0.13 ± 0.026 |
| TACTGTGA | 0.314 ± 0.024 |
| ACGTTGTA | -0.029 ± 0.054 |
| GGGACACC | 0.226 ± 0.042 |
| CAAGTGCC | 0.266 ± 0.0062 |
| ACCGATAG | -0.0394 ± 0.053 |
| CCGGACCG | -0.101 ± 0.056 |
| TACAAAGA | -0.223 ± 0.0075 |

| Sequence | PBM E-score of 8-mer |
| --- | --- |
| AGCAATCC | -0.0593 ± 0.014 |
| GCTTGAAC | -0.266 ± 0.079 |
| CATCAGAG | -0.217 ± 0.047 |
| CCGGCGGA | -0.222 ± 0.012 |
| CGTCCGCC | -0.0511 ± 0.055 |
| GATGCGGA | -0.151 ± 0.044 |
| CCTGGAAC | -0.309 ± 0.035 |
| GGGTGCAC | 0.00383 ± 0.095 |
| CCAGATCA | 0.0835 ± 0.014 |
| GTCTCTCA | 0.0648 ± 0.045 |
| ATAATACC | -0.0993 ± 0.047 |
| AGGTCAAC | -0.223 ± 0.042 |
| CCTGGCCA | -0.158 ± 0.011 |
| ATCGTCGA | 0.179 ± 0.044 |
| GCTAGAAC | 0.0971 ± 0.024 |
| GGGCTGCA | -0.128 ± 0.04 |
| GGCTGTAC | 0.00775 ± 0.014 |
| ATCGACCC | -0.0152 ± 0.019 |
| AAGGATGG | -0.304 ± 0.033 |
| GGTAATGA | -0.087 ± 0.063 |
| CAAATTAG | -0.0851 ± 0.049 |
| AAATGTTA | -0.041 ± 0.04 |
| ACTGTCCC | -0.0468 ± 0.018 |
| AAGAGGGC | -0.109 ± 0.052 |
| TAGTCGCA | 0.112 ± 0.096 |

| Sequence | PBM E-score of 8-mer |
| --- | --- |
| CGAATGCG | -0.108 ± 0.013 |
| CTCAGCCA | -0.142 ± 0.005 |
| TAATAAAA | -0.25 ± 0.049 |
| GCCAAAAC | 0.0461 ± 0.055 |
| CACACCCG | 0.448 ± 0.016 |
| CAGGGCCA | -0.0997 ± 0.041 |
| CTGATTTC | -0.257 ± 0.055 |
| AACGCTAT | -0.0149 ± 0.077 |
| ACGATCCT | 0.00609 ± 0.019 |
| AAGTTATG | -0.0757 ± 0.043 |
| ATCTACGA | -0.231 ± 0.04 |
| ACTGGGAA | -0.0794 ± 0.024 |
| GAAGTATC | 0.0631 ± 0.006 |
| ACGTGAGT | 0.0167 ± 0.024 |
| CAACCAGG | 0.00242 ± 0.011 |
| ACCTATAT | 0.103 ± 0.077 |
| AGAGCACA | -0.129 ± 0.05 |
| TACGACCA | -0.249 ± 0.12 |
| AATCGCTC | -0.00889 ± 0.0063 |
| CCGGTAGA | -0.193 ± 0.061 |
| AGCTCCAG | -0.378 ± 0.075 |
| CCGCGATA | 0.194 ± 0.012 |
| CATTTTAA | -0.16 ± 0.071 |
| GCACGAGA | -0.0609 ± 0.1 |
| GCCGGTTA | -0.0813 ± 0.011 |

| Sequence | PBM E-score of 8-mer |
| --- | --- |
| CAATTAGA | -0.0923 ± 0.011 |
| CACGTGAC | 0.286 ± 0.042 |
| CCATCGGC | 0.0735 ± 0.048 |
| CTCTTCAC | 0.292 ± 0.018 |
| AATAATCA | 0.0678 ± 0.091 |
| GCTTTTGA | -0.129 ± 0.032 |
| CATCATGG | -0.23 ± 0.014 |
| CCGGTGTC | 0.18 ± 0.047 |
| ACAGCGTG | 0.0451 ± 0.034 |
| ACTTGGTG | 0.193 ± 0.044 |
| AGAGAACT | -0.132 ± 0.12 |
| AGCCCGAA | -0.165 ± 0.087 |
| CAAGTCGA | -0.0354 ± 0.098 |
| CGCACGAA | 0.0926 ± 0.039 |
| GACTTCAA | -0.115 ± 0.083 |
| GGTTTATA | -0.18 ± 0.079 |
| GATCGTCA | 0.127 ± 0.069 |
| AAGAGCAG | -0.0507 ± 0.0063 |
| ACTCGGAT | -0.17 ± 0.042 |
| AAGCTATG | -0.194 ± 0.0042 |
| TCGCTCCA | -0.0758 ± 0.028 |
| GCACAACA | 0.144 ± 0.058 |
| ACCACTGC | -0.165 ± 0.036 |
| AGGACGCA | -0.093 ± 0.014 |
| CCCCGCGG | -0.0278 ± 0.0019 |

| Sequence | PBM E-score of 8-mer |
| --- | --- |
| GGTCGCTA | 0.00359 ± 0.0094 |
| ATATCAGA | -0.222 ± 0.003 |
| TCCTCCGA | -0.252 ± 0.0093 |
| GTAGATAA | -0.151 ± 0.039 |
| CGTGTTTC | 0.0757 ± 0.044 |
| TCGCCGAA | -0.051 ± 0.061 |
| TAAGTCCA | -0.244 ± 0.011 |
| ACACAAGT | 0.0616 ± 0.051 |
| ATTCTCTA | -0.0621 ± 0.03 |
| CCAGATGC | -0.178 ± 0.038 |
| GACGCCCC | 0.136 ± 0.099 |
| CCAAAGAC | -0.118 ± 0.045 |
| ATAACCAG | -0.0976 ± 0.025 |
| ATCGCCAG | 0.236 ± 0.038 |
| AAGCGTAG | -0.0374 ± 0.022 |
| AATGAGAT | -0.104 ± 0.02 |
| GCTAGACC | -0.168 ± 0.019 |
| GTTACGTA | -0.0148 ± 0.022 |
| CATAGAAA | -0.183 ± 0.056 |
| ATGCAGGA | -0.192 ± 0.019 |
| AGCGATCC | -0.0625 ± 0.056 |
| AGCTCCCT | -0.0894 ± 0.008 |
| GCTCTGGA | -0.27 ± 0.033 |
| AACGATGT | 0.0627 ± 0.015 |
| CAGGCATG | -0.269 ± 0.044 |

| Sequence | PBM E-score of 8-mer |
| --- | --- |
| CAGCGACG | 0.0381 ± 0.017 |
| CGCAAGAC | 0.07366 ± 4.2e-05 |
| GCGGGATA | -0.076 ± 0.039 |
| AGGAGACG | -0.168 ± 0.0035 |
| CCACACAG | 0.168 ± 0.027 |
| ATACATAA | -0.146 ± 0.042 |
| GCCATATA | -0.0999 ± 0.011 |
| CCAATTCA | -0.0209 ± 0.061 |
| CTTAAGTA | -0.146 ± 0.032 |
| GGTAAATA | -0.129 ± 0.013 |
| ACGGAGGG | -0.179 ± 0.052 |
| CCTGTACA | -0.104 ± 0.0043 |
| AGTTACCA | -0.00685 ± 0.018 |
| AGCATGGC | -0.217 ± 0.0064 |
| CATGTGCA | 0.14 ± 0.028 |
| GTGGTGAA | 0.114 ± 0.028 |
| TGCAACCA | -0.0618 ± 0.0096 |
| CCTGGACA | -0.01 ± 0.077 |
| CCTAGTAC | -0.0868 ± 0.029 |
| CTGCACCA | -0.121 ± 0.11 |
| CCAGGCAA | -0.179 ± 0.11 |
| CTTTTGTA | -0.233 ± 0.088 |
